Among the data in paper PMC12136788 are binding signal values, retold here.

The other results are listed elsewhere or left out.

T1: UNK ZnF1-3 (human, UniProt Q9C0B0 31-174)
T1 sequence: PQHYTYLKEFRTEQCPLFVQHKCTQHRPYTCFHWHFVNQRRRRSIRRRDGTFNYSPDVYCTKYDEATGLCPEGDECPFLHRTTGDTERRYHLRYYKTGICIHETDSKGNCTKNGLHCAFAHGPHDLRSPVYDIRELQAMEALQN

B1: 88941431_88943671_2168_CDS_ENSMUSG00000053333_ENSMUST00000065694|mouse|control|control (ssRNA)
RNA: GGGAGUUCUACAGUCCGACGAUCAGCAUAAUGCCGGAACUGCUCCUGGUCCUGCAGCAUCCCAGAGCAGAAGUACAGUGCCAUCUGCAUGGGCCGGGAGUACAUGUUGGUGAGCACCUCCUUCCGGGCCAGAGAGUACUUGUCCAACAGAGGAUUGAGCAUCA
B2: 179789816_179790473_675_CDS_ENSMUSG00000039086_ENSMUST00000041126|mouse|control|control (ssRNA)
RNA: GGGAGUUCUACAGUCCGACGAUCUGACAAGCUCAUGGAGGUUGUGGGCAGUGUGCUCUGAGCCGUCUGCUGCAUGGACACGUGGUUUGGACCGUUACCGAUCUGGCCCUGCAUGAGGGAGGCGGGGGGCAGGCCUGUGCUGACCAACAGAGGAUUGAGCAUCA
B3: 123687886_123694686_1377_CDS_ENSG00000051825_ENST00000606320|human|control|control (ssRNA)
RNA: GGGAGUUCUACAGUCCGACGAUCCAGUGACGGUAGCUUCAUCUCAUUACUAGUAUUAGACUGGUUUGGUGACACAUCUGUGGAAGACAAUGAUAUGAACGUCUUCUCUAAAGUUUCAGGCAAAGAGUGGUGCAUAUCCUUUUCCAACAGAGGAUUGAGCAUCA
B4: chr6:124997908:124997909:+_ENSMUSG00000030330_ENSMUST00000032480|mus_mus|FALSE|FALSE (ssRNA)
RNA: GGGAGUUCUACAGUCCGACGAUCGGAACAAUCCGGGUUGUCACAGCCAAUCAUCUCUCCAUAGGAGACCUGGUGACAAAGGCAAUAUGUGGGUUCGUUGGGAUCCACAGGCAUAUCCAACACAUCAGAGGGGUGGACACUGCCCAACAGAGGAUUGAGCAUCA
B5: chr19:8913615:8913616:-_ENSMUSG00000071658_ENSMUST00000096259|mus_hu|mus_mus_mus_hu_False|28_68 (ssRNA)
RNA: GGGAGUUCUACAGUCCGACGAUCAGGGUACCAAAACCUUCUGCCUGAAAUGGGUGCCCCACCCAGUCAGGACUUGGAGCUGAAAGUAUCUGAUGCAGAAGCAGUGAAUGCAGAGAAGGAGGCCCCUGGGGAGGGCCAGGCCAGCAACAGAGGAUUGAGCAUCA
B6: chr1:244855233:244855234:+_ENSG00000121644_ENST00000302550|hu_mus|hu_hu_hu_mus_True|58_88 (ssRNA)
RNA: GGGAGUUCUACAGUCCGACGAUCCAUCAGAUGGUAGGCGUUGCCCUUGUAUUCUUUCCCCAGUUCUUCUACAAUUUUUUCUAUAUCAUCUUCUAGAAAGUCCGUACUUCCUAGAACAACAGCUUCUUUAAAUUUAAAUGUUUCCAACAGAGGAUUGAGCAUCA
B7: 4747903_4748125_6276_CDS_ENSMUSG00000067889_ENSMUST00000008991|mouse|control|control (ssRNA)
RNA: GGGAGUUCUACAGUCCGACGAUCUCUGGCCUCUAUCUCUGCUUUGAUUCCUUGUUGGUUUUUGAUGACUAAAUCUGCAGAGGACACAUCCCGGGGCCGCUCCUGGGCAUCCAUCUGCAGGUUAAUCCCAUCCAUCCACAGCAUCAACAGAGGAUUGAGCAUCA
B8: 107778335_107779655_711_CDS_ENSG00000196776_ENST00000355354|human|control|control (ssRNA)
RNA: GGGAGUUCUACAGUCCGACGAUCCCCUGUAGAAGUCACAAUUAAACCAAGGCCAGUAGCAUUCUUUAAUGAAUAUUCACCUGGGACGAAAAGAAUGGCUCCAACAAUGACAAUGACAGUGAUCACUAGUCCAGCAACAAGUAACAACAGAGGAUUGAGCAUCA
B9: chr4:140556289:140556290:+_ENSMUSG00000036622_ENSMUST00000037055|mus_mus|mus_mus_mus_hu_False|1_28 (ssRNA)
RNA: GGGAGUUCUACAGUCCGACGAUCGAUGGAGCUCACCAGGCCCCCUUUUGCCGUGCAGAACCCUGUGCGGGUCACCACUGCCAGGACGUGCGGUCCCACAUAGGCCCGGGCCUGCAGGAUGAGGGUCCCGCAGAAGAGGGUGUGCAACAGAGGAUUGAGCAUCA
B10: 4342972_4343092_2119_CDS_ENSMUSG00000054611_ENSMUST00000075856|mouse|control|control (ssRNA)
RNA: GGGAGUUCUACAGUCCGACGAUCCACUUGCCUAUCCUUUUUAGGGCUACAUUGGGGAUCCCAAACUUGGCCAUUGUGGGAUCCCCGGGUAGAGUCUGAGGAUGAGUCUCCAGACAAAGUUUUCUUCAGACUUGGAAGACUUCGCAACAGAGGAUUGAGCAUCA
B11: chrX:41029285:41029286:+_ENSG00000124486_ENST00000378308|hu_mus|FALSE|FALSE (ssRNA)
RNA: GGGAGUUCUACAGUCCGACGAUCUGUAUGAGACCAAACCUCCAAGUCAUCUACUUGCCUGCCCUGGUUUGGAAAUCGAACUAUAAAAGAGAGGUGUUUACCACGGAAAGCUCUUGACAUAGGCAAAAUUGUUCUUUCUUCAUGCAACAGAGGAUUGAGCAUCA
B12: chr2:198351390:198351391:-_ENSG00000144381_ENST00000345042|hu_hu|hu_hu_hu_mus_False|18_38 (ssRNA)
RNA: GGGAGUUCUACAGUCCGACGAUCUCAUUCCCACCCUCCACAGAAAGGCUGCUUCUGAACUCUCAUGUGGUGACACAGCGCUACAGUCCUGAUGCUCACAGAAUAGUAGAGAUGCCUCCUCAGUGAUAGUUGAAAGCAGGACACCAACAGAGGAUUGAGCAUCA
B13: chr6:31620082:31620083:-_ENSG00000204463_ENST00000375976|hu_hu|motif|central (ssRNA)
RNA: GGGAGUUCUACAGUCCGACGAUCCUAGCUGACUGCCCGCGUCUACUGCCUUCCCACGGUGUUCCAGCAGAACGGCACAACGGACCCACAGCCAAACACACACACACACACACACACACACACACACACACACACCCACCACCCCAACAGAGGAUUGAGCAUCA
B14: chr4:120981101:120981102:-_ENSG00000164109_ENST00000333047|hu_hu|FALSE|FALSE (ssRNA)
RNA: GGGAGUUCUACAGUCCGACGAUCGGUUCCUUUUGAACAAUGUGCAAUAAAUUCAUGAUGUUAACUCCAUGGUAAGUCAAAUAGGUACCAAAAAAAUAAAAGGAACAAUUACACACAGUUCAGUAAGUAUCAUUUUGGUUUUCUCAACAGAGGAUUGAGCAUCA
B15: 114940332_114940452_3345_CDS_ENSG00000197323_ENST00000358465|human|control|control (ssRNA)
RNA: GGGAGUUCUACAGUCCGACGAUCUUCAUCAGAGUCCUCAGUUACCUCACCAUCAUCCUCUUCCUGCUCAAACUCUGGCAAAGGUGCGAAGGUCCUGUCUGAGUAGAUCUCUGUGAGUUUAUCUUCAAAGUACAAUGCAACUGCCAACAGAGGAUUGAGCAUCA
B16: chr5:33461064:33461065:+_ENSG00000113407_ENST00000502553|hu_hu|FALSE|FALSE (ssRNA)
RNA: GGGAGUUCUACAGUCCGACGAUCGGUGAGUCCUGUGAGUGCUCCAGACAGCUCGUUCCUAUGAAGUACCCCAAAAUCAGCUAGCCGCAGAGGCAGUUCUCGCCAGGACCUUGGCCGAUGAUCAAACAUAAGGCAGUGUCCUGGCAACAGAGGAUUGAGCAUCA
B17: chr7:51716546:51716547:+_ENSMUSG00000047085_ENSMUST00000058667|mus_hu|FALSE|FALSE (ssRNA)
RNA: GGGAGUUCUACAGUCCGACGAUCGGGGAUGCUCUCGAUGGGGUUGUUCCGCAGCCAGAGCUCCCGCAGCUUGGACAGGUACUCGAAGGCCUGCGUGGGCACCGUGGUCAGCCGGUUGUCAAAAAGCUCCAGCGUGUUGAGGCUCAACAGAGGAUUGAGCAUCA
B18: chr6:38652254:38652255:-_ENSG00000124767_ENST00000373365|hu_hu|hu_hu_hu_mus_False|1_28 (ssRNA)
RNA: GGGAGUUCUACAGUCCGACGAUCCGAGAACUUCAUAGCAGGGAAGUCAAGCUUCUGCAGGAGGGUCAGUCCAAGAACCCUCGUAUAAAAAUCCAGGGACUUCUUAGGAUCCUUCACUCUUAGCAUCGUUUGCUGCAAUAGAAACAACAGAGGAUUGAGCAUCA
B19: 62686696_62692431_165_CDS_ENSMUSG00000032245_ENSMUST00000034776|mouse|control|control (ssRNA)
RNA: GGGAGUUCUACAGUCCGACGAUCGUCAAGAUGGAAGGGGGCUGUGCGGUCUUUGUCCUCGGCCUUCACAGAGCCAUGCCUGGCCUGCACGAACGCGACACCGGGGCCGCCCGCCGCUCCGAGGAGCUGCCGCCUCCGCGUCGCCAACAGAGGAUUGAGCAUCA
B20: 88224669_88224789_743_CDS_ENSMUSG00000050144_ENSMUST00000057935|mouse|control|control (ssRNA)
RNA: GGGAGUUCUACAGUCCGACGAUCGAUGCUCUGGGCCACAAGGGAGGCCGAGCCCCCGGCUACGAGUGAUUUGACUGUGUUACUCUGGCUGUAGUCUGCCACAAACUUCCGGGUGAGCUCGUAAGUGGUGACAUAGCACUGGCCCAACAGAGGAUUGAGCAUCA
B21: chr2:130852214:130852215:+_ENSMUSG00000027312_ENSMUST00000028781|mus_mus|FALSE|FALSE (ssRNA)
RNA: GGGAGUUCUACAGUCCGACGAUCCAGGUGGAUCUUUGUGAGUUCAGUCCAGCCUGAUCUACAUAGUGAGUUCCAGGCCAGCUAGGACUACACAGUGAGACCCUGUCUCCAAAAACCAAAACAAAACAAAACAAGGCCCCCAUCCAACAGAGGAUUGAGCAUCA
B22: chrX:130830105:130830106:+_ENSMUSG00000033578_ENSMUST00000037687|mus_mus|FALSE|FALSE (ssRNA)
RNA: GGGAGUUCUACAGUCCGACGAUCACUGUAGGCAUCCUUGCUGAGCCUGGGGGUCAACUUGAUGGUCCCCAUGAAAACAAAGAAGAGUCCCAGGGCCACUGAGAGGGCCAUGAUAGUUAUGGUUCGUGGGGAUGCCAUGGGGUCCAACAGAGGAUUGAGCAUCA

The assay deals with T1, UNK ZnF1-3. Description: nsRBNS (natural sequence RNA bind-n-seq); RBNS binding buffer (assumed for nsRBNS): 25 mM Tris pH 7.5, 150 mM KCl, 3 mM MgCl2, 0.01% Triton X-100, 500 ug/ml BSA, 20 U/ml SUPERase-In, 4 C; UNK is unkempt and MSI1 is Musashi-1; names of the RNAs are library labels; protein concentration not given here; high values mean tight binding.
As for B1, the binding signal turned out to be 0.926 enrichment R. As for B2, the figure is 0.969 enrichment R. B3 came in with a binding signal of 1.14 enrichment R.

With B4, the binding signal is 1.19 enrichment R. As for B5, the figure is 1.9 enrichment R; as for B6, 1.43 enrichment R; as for B7, 0.595 enrichment R. Molecule B8 returned a binding signal of 1.69 enrichment R.

B9: the binding signal worked out at 0.409 enrichment R.

On to B10, for which the binding signal stood at 0.905 enrichment R.

Consider B11, for which the binding signal is 1.04 enrichment R. The molecule B12 displayed a binding signal of 1.3 enrichment R. Molecule B13 returned a binding signal of 1.42 enrichment R. The same measure for B14: 0.757 enrichment R; for B15: 0.863 enrichment R. B16 gave a binding signal of 0.911 enrichment R.

B17: the binding signal came to 0.498 enrichment R. Take B18: the binding signal worked out at 0.597 enrichment R.

Turning to B19, the binding signal is 0.547 enrichment R. Consider B20, for which the binding signal was 0.841 enrichment R. The same measure for B21: 1.07 enrichment R; for B22: 0.709 enrichment R.
